Molecules are shown by their SMILES. About 540 (0.36%) of roughly 150,000 compounds showed an effect of 50% or more. Some of the results follow.

The assay relates to Plasmodium falciparum. In words: Primary screen in NF54 nanoGlo assay, in single point, at 2uM, 72h; a lower Z score goes with more inhibition. Type of assay: functional, Erythrocyte. Particulars: timepoint 72 hour.
For `Cc1ccc(S(=O)(=O)N2CCN(C(=O)NCc3ccco3)CC2)cc1`, the % Inhibition (in general, the relative decrease from the control value, in per cent) is reported as 9% and the Z score is reported as -1.2.
Regarding `Cc1c(Cl)ccc2sc(N(Cc3ccccn3)C(=O)CN3C(=O)CCC3=O)nc12`, the “% Inhibition” value was -13% and the Z score is given as 1.6.
Taken in the same sequence, the figures for `c1cc(CN2CC[C@@]3(CCCN(CC4CCC4)C3)C2)n(-c2nccs2)c1` were -14% and 2.12.
Taken in the same sequence, the figures for `c1cnc(N2CCC(N[C@H]3CCCc4occc43)CC2)nc1` were -3% and 0.38.
On to `Cc1ccc(C)c(NC(=O)CNC(=O)N2CC(=O)Nc3ccccc32)c1`, for which the “% Inhibition” value worked out at 35% and the Z score is -3.99.
For the compound `CCc1noc(C)c1C(=O)N(Cc1ccc2c(c1)CCO2)C1CCCC1`, the “% Inhibition” value is on record as -11% and the Z score is 1.5.
Turning to `Cc1c(C)n(Cc2ccco2)c2ncnc(N3CCC(C(=O)O)CC3)c12`, the “% Inhibition” value is reported as -23% and the Z score was 2.15.
The like results for `C[C@H](NS(=O)(=O)c1cccnc1)c1ccc(-c2cccnc2)cc1` were, in that order, -1% and 0.12.
Consider `CC(C)N(CC(=O)N1CCn2cccc2[C@H]1c1cccc(Oc2ccccc2)c1)C(=O)C(c1ccccc1)c1ccccc1`, for which the “% Inhibition” value is -6% and the Z score is on record as 0.65.
For `C[C@@H](c1ccccc1)N(C(=O)CN1CCC(=O)NC1=O)C1CCCC1`, the “% Inhibition” value was 3% and the Z score is given as -0.49.
Taken in the same sequence, the figures for `COc1ccccc1-c1cn2c(n1)CO[C@@H](CNC(C)C)C2` were -11% and 1.41.
Taken in the same sequence, the figures for `O=S(=O)(Cc1ccon1)N1CCOCc2ccccc21` were -6% and 0.87.
`O=C(NCCc1ccc2c(c1)OCCO2)c1ccccn1`: the “% Inhibition” value is recorded as -9% and the Z score came to 1.12.
Taken in the same sequence, the figures for `CC1CCS(=O)(=O)CCN1C(=O)N[C@@H]1C[C@H]1c1c(F)cccc1Cl` (stereo partly drawn) were 6% and -0.94.
Taken in the same sequence, the figures for `CCOC(=O)C1(F)CN(C(=O)C2CCCCC(=O)N2)CC12COC2` (stereo not drawn) were -7% and 0.84.
Taken in the same sequence, the figures for `O=C(c1cccc(S(=O)(=O)Nc2cccc(Cl)c2)c1)N1CCO[C@]2(CCOC2)C1` were 17% and -2.22.
Consider `COC(=O)[C@@H]1C[C@H](O)CCN1C(=O)Cc1csc(-c2ccccc2)n1`, for which the “% Inhibition” value was -11% and the Z score stood at 1.67.
As to `O=C(Nc1cccc(CCN2CCCC2)c1)c1ccon1`, the “% Inhibition” value is given as -3% and the Z score was 0.36.
As to `O=C(Cc1ncc[nH]1)NCC1(c2ccccc2Cl)CCOCC1`, the “% Inhibition” value is given as 1% and the Z score was -0.28.
Consider `CC(=O)Nc1cccc(S(=O)(=O)N[C@@H](C)c2nc(C(C)C)no2)c1`, for which the “% Inhibition” value is -12% and the Z score is 1.92.
Turning to `Cc1ccc(C[C@H]2CCOC3(CCN(S(=O)(=O)c4c(C)nn(C)c4C)CC3)C2)cc1`, the “% Inhibition” value is -19% and the Z score is 2.47.
The like results for `CN(C)c1nc(C#N)nc(N2CCOCC2)n1` were, in that order, -7% and 0.93.
Regarding `O=C(CNC(=O)c1cccc(Br)c1)Nc1ccc2c(c1)OCCCO2`, the “% Inhibition” value was -9% and the Z score is 1.15.
For the compound `CC1=CCN(C(=O)NCC2(S(C)(=O)=O)CCCC2)CC1`, the “% Inhibition” value is given as 15% and the Z score was -1.88.
Taken in the same sequence, the figures for `CCCCc1oc2ccccc2c1CN1CCC(N(C)C(C)=O)CC1` were 6% and -0.66.
Consider `CC(C)c1nnc(Cn2cncn2)s1`, for which the “% Inhibition” value is -14% and the Z score was 2.21.
With `C[C@@]1(C(=O)NCCc2ccccc2)CCCCC(=O)N1`, the “% Inhibition” value was -7% and the Z score came out at 0.84.
Taken in the same sequence, the figures for `CC1(C)C[C@@H]1C(=O)N1CCC(c2ccccc2)CC1` were 6% and -0.95.
The like results for `CC(C)(C)[C@H]1CCc2c(sc(NC(=O)CN3CCCC3)c2C#N)C1` were, in that order, 10% and -1.29.
The like results for `CO[C@H](C(=O)Nc1cncc(Br)c1O)C1CC1` were, in that order, -6% and 0.82.
Regarding `C[C@@H](C(=O)Nc1nccs1)N1CCN(c2cnccn2)CC1`, the “% Inhibition” value was found to be 8% and the Z score is listed as -1.45.
In the case of `O=C(NCCN1CCCC1=O)c1cccc(-c2c[nH]cn2)c1`, the “% Inhibition” value is -3% and the Z score was 0.4.
For the compound `Cn1c(CN2CCCCCC2)nnc1C1CCN(C(=O)Cn2cccn2)CC1`, the “% Inhibition” value is given as 0% and the Z score was -0.01.
The like results for `CN(Cc1cnn(C)c1)C(=O)[C@@H]1CCCO1` were, in that order, -4% and 0.33.
Turning to `O=C(Nc1cccc(CNc2ncccn2)c1)c1ccco1`, the “% Inhibition” value is recorded as -4% and the Z score is 0.39.
Taken in the same sequence, the figures for `CC(C)CCc1noc(CN[C@@H]2C(=O)NCC23CCOCC3)n1` were -3% and 0.5.
Turning to `O=C(NCC1COc2ccccc2O1)[C@@H]1CCCN1C(=O)c1cccs1` (stereo partly drawn), the “% Inhibition” value is 0% and the Z score is reported as 0.05.
The like results for `C[C@@H](CC1(C#N)CCN(C(=O)OC(C)(C)C)CC1)NCC(F)F` were, in that order, -9% and 1.21.
Take `CCn1c(=O)c2c(ncn2Cc2ccc(OC)cc2)n(-c2ccccc2C)c1=O`: the “% Inhibition” value is recorded as 0% and the Z score is on record as 0.03.
`COc1ccc2cc(-c3nc4cc(C)cc(C)c4o3)ccc2c1`: the “% Inhibition” value is recorded as -15% and the Z score was 1.34.
The like results for `CC(C)OC(C)(C)C(=O)Nc1ccn(Cc2ccncc2)n1` were, in that order, 3% and -0.47.
For the compound `O=C(Cc1ccc2[nH]c(=O)[nH]c2c1)N1CC(C2CCCCC2)C1`, the “% Inhibition” value is reported as -9% and the Z score was 1.29.
As to `CC1CN(Cc2nc3c(cnn3C)c(=O)[nH]2)CC(C)O1` (stereo not drawn), the “% Inhibition” value is -8% and the Z score is 0.94.
Taken in the same sequence, the figures for `N#Cc1ccccc1-c1cc(C(=O)O)cc(S(=O)(=O)N2CCCCCC2)c1` were -8% and 0.9.
Take `O=C(CC1=CCCCC1)N(CCC(F)(F)F)C1CCC1`: the “% Inhibition” value is -1% and the Z score is 0.18.
For the compound `COc1ccc2c(c1)C(C(=O)NC1CS(=O)(=O)c3ccccc31)CC2` (stereo not drawn), the “% Inhibition” value is listed as -3% and the Z score was found to be 0.53.
Turning to `COc1cccc(C2=Nc3cccnc3N(CC(=O)Nc3cccc(C(F)(F)F)c3)C(=O)C2)c1`, the “% Inhibition” value is given as -2% and the Z score was 0.44.
For the compound `C=CCNC(=O)C(C)N1CCCC1C1CCCN1C(C)=O` (stereo not drawn), the “% Inhibition” value is on record as -9% and the Z score stood at 1.15.
Taken in the same sequence, the figures for `COc1ccccc1C(=O)N1CCN(c2cc(=O)n(C(C)C)c(=O)n2C(C)C)CC1` were -5% and 0.71.
Taken in the same sequence, the figures for `Cn1c(=O)c2c(ncn2Cc2nc(C(F)(F)F)cs2)n(C)c1=O` were -12% and 1.89.
Consider `CCC(NC(=O)N1CCC(C)C(OC)C1)c1cccs1` (stereo not drawn), for which the “% Inhibition” value is 1% and the Z score is on record as -0.17.
The like results for `COc1cc(-c2noc(CCC(=O)N3CCC[C@@H]3CN)n2)cc(Cl)c1OC` were, in that order, -8% and 0.78.
Consider `Cc1cccc2c1OCC[C@@H]2NC(=O)CNC(=O)c1ccc(F)cc1F`, for which the “% Inhibition” value is reported as -9% and the Z score was 0.9.
Taken in the same sequence, the figures for `O=C1C2ON(c3ccccc3)C(c3ccc(-c4ccc(Cl)cc4Cl)o3)C2C(=O)N1c1ccc(F)cc1` (stereo not drawn) were -11% and 1.19.
Regarding `O=C(Cn1nc(N2CCOCC2)c2ccccc2c1=O)Nc1ccccc1C(F)(F)F`, the “% Inhibition” value is recorded as -7% and the Z score was 1.09.
For `C=C(C)CN(C)C(=O)CC(=O)Nc1cc(C)cc(C)c1`, the “% Inhibition” value amounted to 3% and the Z score is given as -0.35.
On to `CCc1cc(C(=O)NC2CCCCC2)on1`, for which the “% Inhibition” value is -14% and the Z score amounted to 2.1.
The like results for `COC(=O)c1cccc(C#Cc2cccc(NC(=O)[C@H](C)Oc3ccccc3)c2)c1` were, in that order, -18% and 3.44.
The like results for `COCC(=O)N[C@H](C(=O)NC1CC1c1ccc(F)cc1F)C(C)C` (stereo partly drawn) were, in that order, -21% and 1.93.
Turning to `CCNC(=O)C[C@H]1CCCCN1C(=O)CN1CCN(Cc2ccccc2)CC1`, the “% Inhibition” value was -7% and the Z score was found to be 0.71.
Regarding `COc1nc(C)nc2c(CN(C)C)c(C)[nH]c12`, the “% Inhibition” value stood at 37% and the Z score is on record as -4.72.
Taken in the same sequence, the figures for `O=c1c2cccnc2n(Cc2ccc(F)cc2)c(=O)n1C1CCCCC1` were -6% and 1.18.
The like results for `C=CCN(CC(=O)N(Cc1ccccc1)Cc1ccc(C)o1)C(=O)c1ccc(F)cc1` were, in that order, 0% and 0.02.
The like results for `COCC(=O)N1CCN(Cc2csc(-c3ccc(Br)cc3)n2)CC1` were, in that order, -6% and 1.35.
Turning to `O=S(=O)(c1ccc2c(c1)CCC2)N1CC(n2ccnc2)C1`, the “% Inhibition” value was -4% and the Z score worked out at 0.56.
Taken in the same sequence, the figures for `CC[C@@H](CNC(=O)c1nccn1C)N1CCN(C)CC1` were 4% and -0.43.
With `CCC1=NO[C@@H](CN(C)Cc2nc(-c3ccccn3)no2)C1`, the “% Inhibition” value was determined as 9% and the Z score was -1.14.
Taken in the same sequence, the figures for `CCOC(=O)N1CCC(NC(=O)c2cccc(C)n2)CC1` were 5% and -0.72.
Taken in the same sequence, the figures for `O=C(O)c1cnc(N2CCC(Cc3ccccc3)CC2)c(NS(=O)(=O)c2ccc(F)cc2)c1` were -6% and 0.58.
With `CC[C@@H](C(=O)N1CCCC1)N(c1nc(-c2ccc(C)cc2)cs1)c1ccccc1OC`, the “% Inhibition” value was -6% and the Z score was 0.74.
As to `CC[C@H](NC(=O)c1cscn1)c1ccc(C)cn1`, the “% Inhibition” value was found to be 10% and the Z score is on record as -1.88.
The like results for `Cc1noc(-c2ccc(C(C)(C)C)cc2)c1C(=O)NCCOc1ccccc1` were, in that order, 35% and -4.65.
The like results for `CCN(Cc1nn(-c2ccc(F)cc2)c2c1CN(Cc1ccc(F)cc1)CC2)C(=O)c1cccc(F)c1` were, in that order, -6% and 0.71.
The like results for `CCNC(=O)N1CCc2nc(N3CCc4ccccc4C3)nc(N3CCOCC3)c2C1` were, in that order, 5% and -0.7.
For `Clc1cnc(N2CCN(Cc3cncnc3)CC2)nc1`, the “% Inhibition” value is reported as -5% and the Z score is 1.01.
Take `CCC(C)(CC)NC(=O)N1CC(c2ccccn2)C1`: the “% Inhibition” value is given as -12% and the Z score is 1.56.
`O=C(Cc1ccsc1)NC1CCN(c2cnsn2)CC1`: the “% Inhibition” value is listed as -9% and the Z score is listed as 1.18.
Taken in the same sequence, the figures for `CCCc1c(N[C@H]2CCN(C)C2=O)cnn1-c1cccc(F)c1` were -7% and 0.63.
Taken in the same sequence, the figures for `O=C1NCCC[C@@H]1N1CCC2(CCCC2)CC1` were 14% and -1.99.
Regarding `Cc1ccc2ncc(CN(C)CC(C)(C)S(C)(=O)=O)n2c1`, the “% Inhibition” value was determined as 3% and the Z score was -0.5.
The like results for `O=C1C[C@H](C(=O)N(CCc2ccccc2)C2CCCCC2)CN1` were, in that order, -15% and 1.49.
The like results for `N#Cc1ccc(NC2CCC3(CC2)OCCO3)nc1` were, in that order, 2% and -0.28.
The like results for `Cc1nnc(CC(=O)NCC2(c3ccccc3Cl)CCC2)s1` were, in that order, -11% and 1.49.
Take `CC(C)[C@H](NC(=O)CCCN1C(=O)c2ccncc2C1=O)c1nc2ccccc2n1C(C)C`: the “% Inhibition” value was -5% and the Z score stood at 0.65.

(Values after ChEMBL document CHEMBL4888484, “Replenishing the malaria drug discovery pipeline: Screening and hit evaluation of the MMV Hit Generation Library 1 (HGL1) against asexual blood stage Plasmodium falciparum ,using a nano luciferase reporter read-out” (2022).)
